Experimental data taken from publication PMC7272351.
These are yes or no findings as the source states them, for the method shown. Binding seen in cells or lysates may run through a third protein. Some entries that bind do so weakly or less than the wild type.

Amino acid sequences for entries named in this document (tags omitted). A change or cut given only in a name is not applied to a line headed by its entry. Chains listed by the source or under a name are the forms on record and can include a tag or linker. Residues count along the entry.
GFP-tagged human PRR14 Tantalus domain (455–517), wild type (Q9BWN1, residues 455-517): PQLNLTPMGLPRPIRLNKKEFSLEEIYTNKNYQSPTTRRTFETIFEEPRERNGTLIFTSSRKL
GFP-tagged human PRR14 Tantalus domain (455–517) E500A, E501A (Q9BWN1, form named): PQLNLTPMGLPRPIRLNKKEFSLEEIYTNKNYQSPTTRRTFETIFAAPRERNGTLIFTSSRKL
GFP-tagged human PRR14 Tantalus domain (455–517) F495L (Q9BWN1, form named): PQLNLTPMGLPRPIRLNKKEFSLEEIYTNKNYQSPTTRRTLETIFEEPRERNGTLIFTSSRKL
GFP-tagged human PRR14 Tantalus domain (455–517) N483S, K484R (Q9BWN1, form named): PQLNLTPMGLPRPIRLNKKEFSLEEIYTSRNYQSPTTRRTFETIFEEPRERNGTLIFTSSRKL
UniProt Q15172: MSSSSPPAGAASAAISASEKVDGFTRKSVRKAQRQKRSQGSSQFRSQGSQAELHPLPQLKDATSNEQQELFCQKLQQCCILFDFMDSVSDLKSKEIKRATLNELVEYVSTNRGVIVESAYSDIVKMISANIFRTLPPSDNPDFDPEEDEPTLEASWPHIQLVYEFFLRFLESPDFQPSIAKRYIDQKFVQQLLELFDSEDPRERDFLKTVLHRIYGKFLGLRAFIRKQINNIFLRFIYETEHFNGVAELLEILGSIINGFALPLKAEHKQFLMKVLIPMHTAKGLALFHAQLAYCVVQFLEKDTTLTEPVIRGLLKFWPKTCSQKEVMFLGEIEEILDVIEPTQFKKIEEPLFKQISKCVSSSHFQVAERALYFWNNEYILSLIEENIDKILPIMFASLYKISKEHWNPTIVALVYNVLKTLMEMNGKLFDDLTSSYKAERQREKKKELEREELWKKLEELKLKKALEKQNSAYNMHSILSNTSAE

Tests used:
Assay in all cases: co-IP; GFP-Trap magnetic agarose beads (GFP nanobody) added to lysates of HeLa cells co-transfected with GFP-Tantalus (bait) and HA-B56α (prey); lysis in 10 mM Tris-HCl pH 7.5, 150 mM NaCl, 0.5 mM EDTA, 0.5% NP-40; 1 h at 4°C; anti-HA western blot; the paper calls it a pulldown
[1] = biological target: GFP-tagged human PRR14 Tantalus domain (455–517) E500A, E501A (human) (UniProt Q9BWN1)
[2] = biological target: GFP-tagged human PRR14 Tantalus domain (455–517) F495L (human) (UniProt Q9BWN1)
[3] = biological target: GFP-tagged human PRR14 Tantalus domain (455–517) N483S, K484R (human) (UniProt Q9BWN1)
[4] = biological target: GFP-tagged human PRR14 Tantalus domain (455–517), wild type (human) (UniProt Q9BWN1)

Row | Substance | binding [1] | binding [2] | binding [3] | binding [4]
1 | HA-tagged human PP2A B56α regulatory subunit, wild type (from UniProt Q15172 1-486) | no binding | binds | binds | binds
2 | HA-tagged human PP2A B56α G216Q (from UniProt Q15172 1-486) | – | – | – | binds
